Out of some 340,000 compounds screened, about 530 (0.16%) were called active. The shares of active, inactive and inconclusive entries below differ from those in the screen. Cut-off read from the data, not from the text of the source: active = activity change below about -80%; inconclusive = between about -30% and that limit; inactive = weaker than that.
Test: Small Molecules that selectively kill Giardia lamblia: qHTS;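 note: parasites exposed to compound for two days anaerobically before the ATP read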
Details: Giardia lamblia trophozoite viability; at 7.66 µM; stronger effect = lower value
How it was run: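 Trophozoites 100 cells/well + cpd; 48 hrs, 37 deg C, anaerobic. ATPLite 1-Step added, 15-30 min RT, luminescence read (ATP-based viability).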
% is set by controls: 0 for no effect and ±100 for the full control effect.

SMILES | activity change
COc1cc([N+](=O)[O-])ccc1-c1ccc(/C=N/NC(=O)OC(C)(C)C)o1 | inconclusive: -35.4% [inhibitor]
CCC(C)NC(=O)CC1Oc2ccc(Cl)cc2NC1=O (stereo not given) | inconclusive: -33.8% [inhibitor]
O=C(Nc1ccc(NC(=O)c2ccccc2F)cn1)c1ccco1 | inconclusive: -38.9% [inhibitor]
O=C(/C=C/c1ccco1)NC(=S)Nc1nc(-c2ccc3ccccc3c2)cs1 | inconclusive: -38.5% [inhibitor]
COc1cccc(NC2c3ccccc3C(=O)N2Cc2ccco2)c1 (stereo not given) | inconclusive: -46.7% [inhibitor]
COCCNC(=O)c1ccccc1NC(=O)CCSc1ccccc1 | inactive: 15%
CCCC(C)NC(=O)Cc1ccccc1 (stereo not given) | inactive: -2.92%
COC(=O)c1ccc(C(=O)NC2CCSc3ccccc32)cc1 (stereo not given) | inactive: -7.73%
O=C(NCCc1ccc2c(c1)OCCO2)c1ccc([N+](=O)[O-])cc1Cl | inconclusive: -35.9% [inhibitor]
C=C1C(=O)O[C@@]23[C@H]1CC[C@@H](C)[C@@H]2CC[C@@]1(C)O[C@@H]31 | inconclusive: -38.1% [inhibitor]
N#Cc1ccc(C23OCCN2CCn2c3c3ccccc3[n+]2[O-])cc1 (stereo not given) | inconclusive: -39.1% [inhibitor]
Cc1cc(Oc2ccc(C#N)cc2)nc(N2CCOCC2)n1 | inconclusive: -33.2% [inhibitor]
COc1ccc(OCCC(=O)N2CCCCC2)cc1 | inactive: 3.83%
CCOC(=O)c1cnc2c(-c3ccc(Cl)cc3)cnn2c1C | inconclusive: -39% [inhibitor]
CC(C)OC(=O)Nc1ccc2c(c1)N(C(=O)N1CCN(C)CC1)c1ccccc1CC2 | inconclusive: -68.4% [inhibitor]
O=C(OCC(=O)N1CCOCC1)c1ccc(Cl)cc1[N+](=O)[O-] | inconclusive: -31.9% [inhibitor]
Clc1ccc(-n2ncc3c(N4CCCCCC4)ncnc32)cc1 | inconclusive: -32.1% [inhibitor]
C[C@@H]1C(c2ccc(F)cc2)=NN(c2ccc(Br)cc2)[C@H]1C(=O)N1CCOC1=O | inconclusive: -34.1% [inhibitor]
CCC1=CC(c2ccccc2)n2ncnc2N1 (stereo not given) | inconclusive: -36% [inhibitor]
CCc1cc2c(=O)c(-c3nc4ccccc4n3C)coc2c(CN2CCCC(C)C2)c1O (stereo not given) | inactive: 3.1%
COC(=O)/C(=C\c1ccc([N+](=O)[O-])o1)NC(=O)c1ccccc1 | inconclusive: -73.4% [inhibitor]
COc1cc2c(cc1OC)/C(=C/C(=O)c1cccc([N+](=O)[O-])c1)NCC2 | inconclusive: -34% [inhibitor]
Cc1cccc(C)c1OCC(=O)NCc1ccccc1 | inconclusive: -32.4% [inhibitor]
OC(COc1ccc2ccccc2c1)CN1CCCC1 (stereo not given) | inactive: -16.9%
Cc1ccc(-c2cccc(-c3cc(=O)oc4ccc(C(C)(C)C)cc34)c2)cc1 | inactive: 3.15%
Cc1ccc2c(c1)[C@H]1[C@H](CO2)[C@H](c2ccccc2)[C@]2(C)C(=O)Nc3cc(F)c(F)cc3C(=O)N12 | inactive: -2.34%
COc1ccc(-c2nnc(Nc3nc4c(OC)cccc4s3)o2)cc1 | inconclusive: -35.6% [inhibitor]

SMILES | activity change
CCn1c(C)nc2cc(NC(=O)Nc3cccc(C(C)=O)c3)ccc21 | inconclusive: -47.4% [inhibitor]
CC(=O)Nc1ccc(S(=O)(=O)N(CCc2ccccc2)CC(=O)N/N=C/c2ccc(C(=O)O)cc2)cc1 | inconclusive: -45.6% [inhibitor]
O=C(O)CCSc1ncnc2sc(-c3ccccc3)cc12 | inactive: 8.78%
CCN=c1scc(-c2ccccc2)n1/N=C/c1ccccn1 | inconclusive: -31.7% [inhibitor]
CC(C)C[C@@H](CNCC(=O)[C@H](Cc1ccccc1)NC(=O)c1[nH]cnc1C(=O)N[C@@H](C)CN)NC(=O)c1nc[nH]c1C(=O)N[C@@H](CC(=O)O)C(=O)O | inconclusive: -38% [inhibitor]
CN(C)c1ccc(/C=C(\C#N)c2ccccn2)cc1 | active: -98.4%
COc1cccc(CN2CCCC(C(=O)N3CCCCC3)C2)c1OC (stereo not given) | inactive: 16.4%
O=C(NCCc1ccccc1)c1ccc2c(c1)OCCO2 | active: -81.2%
COc1ccc(/C(N)=N/OC(=O)C2CCCCC2)cc1OC | inactive: -10.9%
O=C(Nc1ccccc1)Nc1n[nH]c2nnc(-c3ccccc3)c(-c3ccccc3)c12 | inconclusive: -40.2% [inhibitor]
COc1ccc(/C=C/C(=O)c2ccc(NS(=O)(=O)c3ccc(C)cc3)cc2)cc1O | inconclusive: -36.1% [inhibitor]
COc1ccc(Cl)cc1NC(=O)CSc1nc2ccsc2c(=O)n1CC1CCC(C(=O)O)CC1 (stereo not given) | inconclusive: -34.9% [inhibitor]
CNCCCOc1ccc2c(c1)CCC2 | inconclusive: -32.3% [inhibitor]
COc1cc(C2C3=C(CC(C)(C)CC3=O)NC3=C2C(=O)c2ccccc23)ccc1O (stereo not given) | inconclusive: -36.4% [inhibitor]
CSc1ccc(/C=C2\NC(=O)NC2=O)cc1 | inconclusive: -35.5% [inhibitor]
Cn1ccnc1C1CCCCN1Cc1nc(-c2ccc3c(c2)OCO3)no1 (stereo not given) | inactive: 2.68%
CN(C)CCCNC(=O)c1cc(C(=O)c2cccc(Cl)c2Cl)c[nH]1 | inactive: 14.2%
O=C(NCCSCc1ccco1)Nc1ccc(Cl)cc1 | inconclusive: -34.1% [inhibitor]
O=C(N/N=C/c1ccc[nH]1)c1ccc2c(c1)OCO2 | inconclusive: -33.7% [inhibitor]
COc1ccccc1-n1c(C)nnc1SCC(=O)Nc1cc(C)cc(C)c1 | inactive: -9.61%
Cc1nn(-c2ccccc2Cl)c(Cl)c1/C=C(\C#N)C(N)=O | inactive: -10.8%
CCCCN1C(C)=CC(=C2C(=O)c3ccccc3C2=O)C=C1C | inconclusive: -42.2% [inhibitor]
COC(=O)N/N=C/c1c[n+]([O-])c2ccccc2[n+]1[O-] | active: -80.1%
O=C(CSc1ccsc1[N+](=O)[O-])NCCc1ccc(Cl)cc1 | inconclusive: -72.2% [inhibitor]
Cc1ccc(C2=NCCn3c2c2ccccc2[n+]3[O-])cc1 | active: -89.5%
O=C(c1ccc([N+](=O)[O-])o1)N1CCN(c2nc3ccc(F)cc3s2)CC1 | active: -88.8%
C=CCCC(=O)N1C[C@H]2CON(C)[C@H]2C[C@H]1c1cccc(Br)c1 | inconclusive: -32.7% [inhibitor]

SMILES | activity change
CCOc1ccc(/C=C2\CCc3ccccc3C2=O)cc1 | inconclusive: -40.4% [inhibitor]
O=C(CCS(=O)(=O)c1ccccc1)Nc1ccc(-c2nc3ccccc3s2)cc1 | inactive: -8.21%
NNC(=O)c1nc[nH]c1C(=O)Nc1ccccc1[N+](=O)[O-] | inconclusive: -30.5% [inhibitor]
CC(=O)Nc1ccc(-c2cn3cc(C)ccc3n2)cc1 | inconclusive: -34.1% [inhibitor]
CCCn1c(=O)c(-c2nc3ccccc3[nH]2)c(O)c2ccccc21 | inactive: -18.7%
Cc1cc(=O)[nH]c(NN=C2CCCCC2C)n1 (stereo not given) | inactive: -16.2%
COc1cc2c(cc1OC)CN(c1ccc([N+](=O)[O-])cc1C#N)CC2 | inactive: 2.62%
Cc1cc(NC(=O)CSc2nnc(-c3ccccc3F)n2C)no1 | inconclusive: -37.4% [inhibitor]
CC(=O)c1c(C)[nH]c(C(=O)Nc2ccc(C)cn2)c1C | inconclusive: -42.8% [inhibitor]
O=C(/C=C/c1ccc([N+](=O)[O-])s1)N1CCN(c2ccccc2)CC1 | inconclusive: -80% [inhibitor]
Cc1ccc(C2=NN=C(NC(=O)C(F)(F)F)SC2)cc1 | inconclusive: -30.1% [inhibitor]
CS(=O)(=O)N1CCN(c2ccccc2NC(=O)c2ccc([N+](=O)[O-])o2)CC1 | active: -98%
C#CC[N+](C)(C)CC#Cc1ccc(Cl)cc1 | inconclusive: -31% [inhibitor]
S=c1sc2c(N3CCN(Cc4ccccc4)CC3)ncnc2n1-c1ccccc1 | inactive: -19.5%
N#Cc1c2c(c(NCc3ccco3)n3c1nc1ccccc13)CCC2 | inactive: 3.76%
CCn1cc([N+](=O)[O-])c(=O)c2cc(F)c(N3CCOCC3)cc21 | inconclusive: -41.6% [inhibitor]
CC(=O)N1c2ccc(S(=O)(=O)N3CCCCC3)cc2CC1C(=O)Nc1ccc(C)cc1 (stereo not given) | inconclusive: -32.1% [inhibitor]
CCN(CC)CCNC(=O)c1ccc(Cl)c(S(=O)(=O)Nc2ccc(Cl)cc2)c1 | inconclusive: -37% [inhibitor]
COc1ccc(NC(=S)Nc2ccc(F)cc2)cc1 | inactive: 3.5%
Cc1nccn1CC(=O)N/N=C/c1ccccc1O | inconclusive: -37.5% [inhibitor]
CCCNC(=S)N1CCN(C(c2ccccc2)c2ccccc2)CC1 | inactive: -9.63%
CNC(=O)COC(=O)/C=C/c1ccco1 | inconclusive: -44% [inhibitor]
O=C(Nc1ccc(F)c(Cl)c1)N1CCCC1 | inactive: -5.22%
CCc1c(C)sc(NC(=O)CN2CCN(C(=O)c3ccco3)CC2)c1C(=O)OC | inconclusive: -30.6% [inhibitor]
O=C1c2cccc3cccc(c23)N1Cc1cccc(F)c1 | inactive: -13%
Cc1cccc(-n2nc([N+](=O)[O-])c(N3CCN(C(=O)c4ccco4)CC3)[n+]2[O-])c1 | inconclusive: -39.6% [inhibitor]
